Sequences with one replicate were seen in a single cluster, so their values are uncertain.
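Also: ATP exposure 15 min at 22 °C before imaging.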

In this data set the test system is ATP. Nature of the data set: switch fluorescence ratio, 500 uM ATP over buffer (Cy3 cluster intensity, sum of 5 cycles each) (fold (ratio)); higher = stronger signal-on switching upon ATP binding; sequences stand for … in TCGTCGGCAGCGTCAGATGTGTATAAGAGACAGTTTTTTTTTTTTTTTTTTTTTTTTT…TC. Conditions: aptamer strand: ATP DNA aptamer (quencher-CACCTGGGGGAGTATTGCGGAGGAAGG + anchor), 100 nM annealed; ATP concentration: 500 uM; one replicate. The essentials: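 Between each of five buffer/ATP cycles, the flow-cell was stripped with NaOH and re-annealed. Each cycle imaged Cy3-labelled switching-strand clusters, annealed to 100 nM quencher-labelled ATP aptamer on a modified Illumina MiSeq flow-cell, first in selection buffer and then after 15 min with 500 uM ATP at 22 °C. The fluorescence ratio is summed target-cycle over summed buffer-cycle Cy3 intensity per cluster, averaged per switch-domain sequence, with clusters outside 100-1000 RFU excluded.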
CATGTCTGGA: the switch fluorescence ratio amounted to 0.991.

In the case of TCCTAGTGTT, the switch fluorescence ratio was determined as 1.01.

Regarding CTATTGCTTT, the switch fluorescence ratio was 1.03.

Take CCCAGATCTT: the switch fluorescence ratio worked out at 1.02.

In the case of AGTCCGTTCA, the switch fluorescence ratio was determined as 0.988.

In the case of AGTCGGCAGG, the switch fluorescence ratio was 1.02.

Turning to CCCCTACGTG, the switch fluorescence ratio amounted to 2.18.

On to ATAATGGTG, for which the switch fluorescence ratio came to 1.

On to GTTATGGAAT, for which the switch fluorescence ratio stood at 1.04.

As for TTGCCCCTGT, the switch fluorescence ratio is 0.998.

Turning to CGGGAAGTCC, the switch fluorescence ratio turned out to be 1.01.

Consider CTTGTTCGAG, for which the switch fluorescence ratio was determined as 0.96.

As for TACCCTTGAC, the switch fluorescence ratio was found to be 1.07.

As to AGCCGCGCCC, the switch fluorescence ratio came to 1.16.

In the case of ATTCCAGGCT, the switch fluorescence ratio is 1.04.

Consider TACAGTAGGC, for which the switch fluorescence ratio is 0.997.

For ACCTATGGGG, the switch fluorescence ratio was 1.14.

On to TTTTGAAGCT, for which the switch fluorescence ratio was 0.879.

Consider TATAAAGATA, for which the switch fluorescence ratio is 0.944.

Regarding TTCACGGTTT, the switch fluorescence ratio amounted to 0.973.

As for GAGTTCGAGT, the switch fluorescence ratio was 1.06.

Consider ATGTGTTATA, for which the switch fluorescence ratio came to 1.07.

Regarding CGGAGAAAGA, the switch fluorescence ratio is 0.981.

Take GCTTCTGT: the switch fluorescence ratio was 0.976.

Regarding GTAGGATTCA, the switch fluorescence ratio is 0.943.

For the sequence AGTATTCAG, the switch fluorescence ratio is 0.999.

On to GGACTATTAC, for which the switch fluorescence ratio stood at 1.13.

With CGAGGATAAG, the switch fluorescence ratio is 0.987.

On to CATGTTGCGC, for which the switch fluorescence ratio was found to be 1.02.

Turning to TGTAGGCTC, the switch fluorescence ratio stood at 1.01.

Turning to GCGGTATTAA, the switch fluorescence ratio amounted to 0.948.

Consider ACAATGCT, for which the switch fluorescence ratio stood at 1.06.

As for ATACCTAGT, the switch fluorescence ratio worked out at 1.03.

With AAAAATGCGT, the switch fluorescence ratio was determined as 1.01.

For the sequence GTTCCTCTTC, the switch fluorescence ratio worked out at 1.03.

As for TCAAAGTCGG, the switch fluorescence ratio is 1.01.

For CCATTCATAT, the switch fluorescence ratio was determined as 1.03.

For ACGGCCATTT, the switch fluorescence ratio was found to be 1.04.

As for ACTTAGAGGA, the switch fluorescence ratio is 1.

Take GCGCCATCTA: the switch fluorescence ratio turned out to be 1.04.

TGAAGTCATC: the switch fluorescence ratio was 1.03.

Regarding GGTGCGTGGT, the switch fluorescence ratio amounted to 1.05.

For the sequence GTACGCCAGT, the switch fluorescence ratio is 0.991.

As to TTACCGAGCT, the switch fluorescence ratio is 1.19.

In the case of TAATGCTTGA, the switch fluorescence ratio came out at 1.02.

Consider AGCGAAGTAA, for which the switch fluorescence ratio amounted to 1.11.

With AAGGTGGAG, the switch fluorescence ratio is 1.04.

Consider TGGTGCTCAC, for which the switch fluorescence ratio was found to be 1.01.

For GAACTGCTGG, the switch fluorescence ratio stood at 0.97.

Consider TAGACTTCCT, for which the switch fluorescence ratio amounted to 0.985.

Consider GGCCAGCCTG, for which the switch fluorescence ratio was determined as 0.979.

Regarding ATGGTAGATT, the switch fluorescence ratio was determined as 1.01.

Consider TATTAAAGG, for which the switch fluorescence ratio was found to be 1.05.

As for ATGTGATCAT, the switch fluorescence ratio was 0.956.

As to TCGACCGCCG, the switch fluorescence ratio was determined as 1.03.

AAACTGATTT: the switch fluorescence ratio was 1.04.

Regarding TTGAGCAAGA, the switch fluorescence ratio worked out at 1.48.

As to ACAGATGTCC, the switch fluorescence ratio came out at 1.01.

As for AGCTTCTTG, the switch fluorescence ratio was found to be 1.01.

Turning to ATTGGAACAG, the switch fluorescence ratio amounted to 0.998.

ATCTGCGTTG: the switch fluorescence ratio is 1.02.

Consider TGGGGCGAGA, for which the switch fluorescence ratio was determined as 1.06.

As to GAGTAAATTT, the switch fluorescence ratio stood at 0.964.

With CTAAAGGAGA, the switch fluorescence ratio was determined as 1.02.

In the case of TGGGGAGTTT, the switch fluorescence ratio stood at 1.03.

Consider TGTTACTGCT, for which the switch fluorescence ratio was determined as 0.969.

As for CGTACACGTC, the switch fluorescence ratio was determined as 0.97.

With TGGACCCTTC, the switch fluorescence ratio worked out at 1.05.

On to AGGCATGTC, for which the switch fluorescence ratio was found to be 0.963.

On to GTGGCGCGTT, for which the switch fluorescence ratio amounted to 0.998.

On to AGAGTGACCT, for which the switch fluorescence ratio is 1.21.

With AACAATTGTG, the switch fluorescence ratio turned out to be 1.01.

With CATAAGTAAG, the switch fluorescence ratio was determined as 1.04.

Turning to GCTGTCTGGC, the switch fluorescence ratio is 1.02.

CGAGCTATGA: the switch fluorescence ratio turned out to be 1.09.

For TACGGTACTT, the switch fluorescence ratio amounted to 1.54.

For the sequence TTAAAGCCTA, the switch fluorescence ratio was 0.901.

For AAATTGTGTC, the switch fluorescence ratio came out at 0.962.

Turning to CAGCCTCCGG, the switch fluorescence ratio stood at 1.05.

In the case of TCAAGTAGCT, the switch fluorescence ratio came out at 1.02.

As to GCTTCCATTG, the switch fluorescence ratio turned out to be 1.03.

With TGATGTAAAT, the switch fluorescence ratio was found to be 1.08.

As to GCTCCAAGAT, the switch fluorescence ratio stood at 3.16.

GCTTGCATTG: the switch fluorescence ratio amounted to 1.01.

For the sequence GGACTCTAG, the switch fluorescence ratio amounted to 0.981.

TAGCAAAACG: the switch fluorescence ratio amounted to 1.06.

GTCCATCTGA: the switch fluorescence ratio was 1.

Consider GCTTTCATCT, for which the switch fluorescence ratio turned out to be 0.986.

Consider TGGATATAG, for which the switch fluorescence ratio was 0.963.

ACCGATTGGG: the switch fluorescence ratio is 1.01.

For TTAACAAATG, the switch fluorescence ratio amounted to 1.

Take ACACATCTAT: the switch fluorescence ratio was 1.04.

On to GTGTGCTGGG, for which the switch fluorescence ratio came to 0.981.

With ACAATCACG, the switch fluorescence ratio came to 1.46.

For CCGGTACATC, the switch fluorescence ratio worked out at 1.28.

For the sequence GTTACGATG, the switch fluorescence ratio was found to be 0.993.

As for CACGCGGTTG, the switch fluorescence ratio was determined as 1.02.

As for GGTGCATGAG, the switch fluorescence ratio came to 1.01.

GCTCAATAGG: the switch fluorescence ratio was determined as 1.03.

Consider GGGCTGTA, for which the switch fluorescence ratio worked out at 0.995.

As to TGTGGGCTTT, the switch fluorescence ratio turned out to be 0.949.

Turning to GTGTGCGAGC, the switch fluorescence ratio turned out to be 1.02.

TGCGTCCATG: the switch fluorescence ratio turned out to be 1.03.

In the case of ACTCGAGTAG, the switch fluorescence ratio turned out to be 1.01.

In the case of CTTTGCAGTA, the switch fluorescence ratio was 1.31.

Regarding TCAAAATAGG, the switch fluorescence ratio worked out at 1.

Turning to CTGATCGGGA, the switch fluorescence ratio was determined as 1.

With ACAATTGCTC, the switch fluorescence ratio is 1.1.

In the case of AATTCTTATC, the switch fluorescence ratio amounted to 0.961.

For the sequence GCAACCGGGA, the switch fluorescence ratio was 1.01.

On to TATCAACCAG, for which the switch fluorescence ratio is 1.05.

On to TGGCCTACTG, for which the switch fluorescence ratio worked out at 0.963.

Turning to CATAGGTTAG, the switch fluorescence ratio was 0.979.

Take AATTGGAGAA: the switch fluorescence ratio amounted to 1.04.

Turning to TGGCAGAAAA, the switch fluorescence ratio worked out at 1.03.

In the case of CGGCATTCAG, the switch fluorescence ratio was determined as 1.03.

Consider AGCGTCTTC, for which the switch fluorescence ratio amounted to 0.984.

Turning to CCGTGATAAC, the switch fluorescence ratio turned out to be 6.13.

Consider TGTCCAAAGA, for which the switch fluorescence ratio was found to be 1.02.

Take GTGGACTTAT: the switch fluorescence ratio worked out at 1.02.

Values taken from the supplement of paper PMC10126150.
